Measurements published in PubChem BioAssay AID1347120 (National Center for Advancing Translational Sciences (NCATS), 2019).
The whole screen tested about 390,000 compounds, of which about 930 (0.24%) were called active. The shares of active, inactive and inconclusive entries below differ from those in the screen. The call rests on the fitted dose curve; in most records, active means well fitted activation curve with a large enough effect; inconclusive means small, poorly fitted or top-dose-only effect; inactive means no such curve, though single readings can be large or run the other way. A potency beside an inconclusive call is a rough fit, not a confirmed value.

Assay: qHTS for Suppressors of FUS Proteinopathy: Primary screen using FUS-linked yeast assay; further: nearly all actives have a fitted effect of over 55% in size;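 on growth rescue (activation): plate controls were DMSO vehicle for no effect and reference control for full effect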
Details: S. cerevisiae FUS-expressing, OD600, 24 h; Potency: growth rescue; growth rescue (activation): at 76.6 µM (top of the series)
How it was run: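 Restored growth of FUS-toxic S. cerevisiae, read as 600 nm absorbance after 24 h at 30C in galactose medium (starting OD 0.005). Controls CP55940 and DMSO.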
Potency means the concentration at half of the fitted maximal effect; tags describe the fitted curve by direction and shape.

Compound | Potency | growth rescue (activation)
CCn1cnc2c1c(=O)n(Cc1csc(-c3ccccc3)n1)c(=O)n2Cc1ccccc1 | inconclusive: 35.5 µM [activator, partial curve, poor fit] | –
CC(=O)N1CCc2c(sc3c2c(=O)n(Cc2ccccc2)c(=O)n3CC(=O)Nc2ccc(C)c(F)c2)C1 | inconclusive: 14.1 µM [activator, partial curve, poor fit] | –
O=C(CSc1ccc(Cl)cc1)Nc1cccc(NC(=O)c2ccco2)c1 | inconclusive: 7.94 µM [activator, full curve, poor fit] | –
CCOc1ccc(CNC(=O)CCCn2c(=O)c3cccn3c3ccc(F)cc32)cc1 | – | inactive: -7.85%
COc1ccc(CN2C(=O)C(NC(=O)c3ccccc3OC)(C(F)(F)F)N=C2c2ccccc2)cc1 (stereo unspecified) | inconclusive: 6.31 µM [activator, full curve] | –
CCOc1ccccc1CNC(=O)CN1C(=O)CCc2cc(S(=O)(=O)N3CCCCC3)ccc21 | inconclusive: 28.2 µM [activator, partial curve, poor fit] | –
O=C(OCCCc1cc2ccccc2c(=O)o1)c1ccc(C(F)(F)F)cc1 | inconclusive: 5.01 µM [activator, full curve] | –
COc1ccc(N2Cc3cccc(C(=O)NC(C)CCc4ccco4)c3C2=O)cc1 (stereo unspecified) | inconclusive: 28.2 µM [activator, single point] | –
COC(=O)[C@]12C[C@H](CC(=O)NCCc3ccccc3OC)C(=O)N(Cc3ccc4c(c3)OCO4)C1=C[C@H](C(C)C)O[C@@H]2C1CC1 | inconclusive: 25.1 µM [activator, partial curve, poor fit] | –
Cc1cnc(NC(=O)CCc2ccccc2)s1 | – | inactive: -15.2%
CCCOc1ccc(/C(O)=C2/C(=O)C(=O)N(c3ccccn3)C2c2ccc(OC)cc2)cc1C (stereo unspecified) | inconclusive: 39.8 µM [activator, partial curve, poor fit] | –
COC(=O)[C@]12C[C@H](CC(=O)N3CCCC3)C(=O)N(CCC3=CCCCC3)C1=C[C@H](C1CCCC1)O[C@@H]2C | inconclusive: 35.5 µM [activator, single point] | –
Cc1cccc(C)c1OCC(=O)N[C@@H](Cc1ccccc1)[C@@H](O)C[C@H](Cc1ccccc1)NC(=O)[C@H](C(C)C)N1CCCNC1=O | active: 31.6 µM | –
N#Cc1c2c(c(=S)n(-c3ccccc3)c1N)CCCC2 | inconclusive: 35.5 µM [activator, partial curve, poor fit] | –
COc1ccc(Nc2nc(N)nc(CSC(=S)N3CCCCC3)n2)cc1 | – | inactive: 35.2%
Cc1ccc(NC(=O)c2ccc(F)c(S(=O)(=O)N3CCOCC3)c2)cc1F | – | inactive: 5.35%
CC(C)COc1ccccc1C1CC(=O)Nc2cc3c(cc21)OCO3 (stereo unspecified) | – | inactive: -7.78%
Cc1c(C(=O)NCc2ccc(Cl)c(Cl)c2)sc(=O)n1Cc1ccc(S(C)(=O)=O)cc1 | inconclusive: 50.1 µM [activator, single point] | –
Cc1ccc(S(=O)(=O)N2[C@H](CC(=O)c3ccccc3)OC[C@@H]2C(C)C)cc1 | inconclusive: 31.6 µM [activator, partial curve, poor fit] | –
COc1ccc(-c2nc3cnccn3c2Nc2ccc3c(c2)OCO3)cc1 | active: 28.2 µM | –
CC(C)c1ccc(Nc2ncnc3c2c(-c2ccccc2)cn3-c2ccccc2)cc1 | – | inactive: -12.4%

Compound | Potency | growth rescue (activation)
Cc1ccc2c(c1)C(c1ccc(F)cc1)N(C(=O)C1CC1)CC(=O)N2 (stereo unspecified) | – | inactive: 3.1%
O=C(NCCc1ccccc1)OCc1cn(Cc2ccc(Cl)cc2)nn1 | – | inactive: 7.47%
Cc1ccnc(NC(=O)C2CCCN(S(=O)(=O)c3ccc4[nH]c(=O)ccc4c3)C2)c1 (stereo unspecified) | – | inactive: 1.59%
CC(=O)CC[C@H]1CC[C@]2(CCCN(C(=O)c3ccccc3)C2)O1 | – | inactive: -12%
CCOC(=O)c1c(C)sc(-c2c(-c3ccc(OC)c(F)c3)[nH]c3c2c(=O)[nH]c(=O)n3C)c1O | inconclusive: 22.4 µM [activator, partial curve, poor fit] | –
CN(C)C(=O)CC12CC3CC(C1)CC(CC(=O)N(C)C)(C3)C2 | – | inactive: 12.9%
CCC(CC)C(=O)Nc1ccc2nc(SCC(=O)N3c4ccccc4CC3C)sc2c1 (stereo unspecified) | inconclusive: 20 µM [activator, single point] | –
COC(=O)C1CCN(C(=O)c2cc(-c3ccco3)nc3ccccc23)CC1 | inconclusive: 10 µM [activator, partial curve] | –
CC1CN(C(=O)Nc2ccc3c(c2)OCO3)CC(C)O1 (stereo unspecified) | inconclusive: 50.1 µM [activator, single point] | –
Cc1ccc(Oc2nnc(-c3ccccc3)cc2C#N)cc1 | inconclusive: 7.94 µM [activator, full curve] | –
Cn1ncc2c(Nc3ccc(Br)cc3)nc(Nc3ccc(Br)cc3)nc21 | – | inactive: 8.29%
CCCN(CCC)CC(O)Cn1cc(/C=C/C(=O)c2ccc(OCC)cc2)c2ccccc21 (stereo unspecified) | inconclusive: 39.8 µM [activator, single point] | –
Cc1[nH]c2ccc(C(=O)N3CCN(c4cccc(Cl)c4)CC3)cc2c1C | inconclusive: 20 µM [activator, single point] | –
CCc1ccc(NC(=O)c2cc3c(=O)n(Cc4cccnc4)ccc3nc2C)cc1 | inconclusive: 6.31 µM [activator, single point] | –
C[C@H](NC(=O)c1nc[nH]c1C(=O)N1CCc2ccccc2C1)C(=O)OCc1ccccc1 | inconclusive: 28.2 µM [activator, single point] | –
COc1ccc(Nc2nc(N)nc(CSc3nc4cc(OC)ccc4s3)n2)cc1 | inconclusive: 44.7 µM [activator, single point] | –
O=C(c1cccc(F)c1)N1CCN(C(=O)c2cc(-c3ccc(Cl)cc3Cl)on2)CC1 | inconclusive: 50.1 µM [activator, single point] | –
COCc1cccc(-c2csc(C(C)(O)c3ccccc3)n2)c1 (stereo unspecified) | – | inactive: 4.2%
COc1ccc(C(=S)N2CCOCC2)cc1OC(=O)c1cccc([N+](=O)[O-])c1 | inconclusive: 28.2 µM [activator, single point] | –
O=C1C2CCCCC2C(=O)N1c1ccc(S(=O)(=O)Nc2ncccn2)cc1 (stereo unspecified) | – | inactive: 9.88%
